Reference: publication PMC4336329 (PLoS ONE, 2015)
About 2,200 (0.71%) of roughly 310,000 compounds showed an effect of 50% or more. Effects have a minus sign here. This is one part of the list.

These compounds were tested against human ether-à-go-go-related gene (hERG) potassium channel (human, UniProt Q12809) (assay: primary screen, population patch clamp on CHO cells stably expressing hERG).
human ether-à-go-go-related gene (hERG) potassium channel, sequence (Q12809 whole entry, looked up): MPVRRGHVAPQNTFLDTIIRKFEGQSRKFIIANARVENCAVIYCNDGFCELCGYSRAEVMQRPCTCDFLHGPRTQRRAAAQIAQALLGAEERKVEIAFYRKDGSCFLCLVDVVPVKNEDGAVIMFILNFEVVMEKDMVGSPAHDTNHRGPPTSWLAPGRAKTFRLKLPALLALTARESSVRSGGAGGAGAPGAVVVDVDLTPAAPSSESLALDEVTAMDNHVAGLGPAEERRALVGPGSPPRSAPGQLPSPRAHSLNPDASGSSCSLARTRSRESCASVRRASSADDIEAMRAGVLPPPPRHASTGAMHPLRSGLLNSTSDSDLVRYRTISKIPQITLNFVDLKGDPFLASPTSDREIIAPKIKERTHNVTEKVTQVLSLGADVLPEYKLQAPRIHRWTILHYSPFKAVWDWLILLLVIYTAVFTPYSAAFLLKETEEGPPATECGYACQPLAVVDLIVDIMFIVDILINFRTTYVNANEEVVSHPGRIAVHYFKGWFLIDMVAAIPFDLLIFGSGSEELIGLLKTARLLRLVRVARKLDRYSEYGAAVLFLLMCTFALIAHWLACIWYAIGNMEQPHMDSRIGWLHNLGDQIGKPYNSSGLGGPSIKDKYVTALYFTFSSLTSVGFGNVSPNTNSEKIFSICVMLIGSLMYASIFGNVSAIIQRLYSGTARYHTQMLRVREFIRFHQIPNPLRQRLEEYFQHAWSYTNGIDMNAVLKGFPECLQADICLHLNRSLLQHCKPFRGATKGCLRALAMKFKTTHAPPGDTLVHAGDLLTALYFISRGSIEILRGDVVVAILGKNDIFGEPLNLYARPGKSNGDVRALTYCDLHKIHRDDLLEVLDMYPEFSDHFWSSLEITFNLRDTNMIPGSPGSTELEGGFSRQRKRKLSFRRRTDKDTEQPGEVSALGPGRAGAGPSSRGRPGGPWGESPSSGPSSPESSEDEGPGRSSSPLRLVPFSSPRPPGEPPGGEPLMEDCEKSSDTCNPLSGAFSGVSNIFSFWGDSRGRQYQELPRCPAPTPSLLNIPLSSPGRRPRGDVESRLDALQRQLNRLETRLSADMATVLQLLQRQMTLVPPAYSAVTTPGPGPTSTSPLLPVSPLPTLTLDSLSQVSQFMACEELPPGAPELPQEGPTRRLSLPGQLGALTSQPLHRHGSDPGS

SMILES | hERG current change (%, negative = inhibition) at 1uM [%]
O=C1/C(=C\c2ccccn2)SC(=S)N1c1ccc(S(=O)(=O)Nc2nccs2)cc1 | 7.42
N/C(=N\OC(=O)c1ccc(Br)cc1)c1ccccc1 | -2.65
CCC(C)(C)NC(=O)CN(C(=O)C(=O)Nc1ccc2c(c1)OCCO2)C1CC1 | 12.1
CS/C(=C\C(=O)c1ccco1)Nc1ccccc1Cl | 9.56
O=C(NNC(=S)NC(=O)c1cccnc1)c1ccccc1 | 6.23
CCc1cc(-c2n[nH]c(C)c2-c2nc3ccccc3n2C)c(O)cc1O | 9.86
CSc1nc(N)nc(-c2cccs2)c1C#N | -16.9
COc1cccc(COc2ncnc3sccc23)c1 | -7.63
Cn1c(CC(=O)Nc2ccccc2F)nnc1SCC(=O)Nc1nncs1 | 12.9
Cc1ccc(C(=O)NN2C(=O)C3C4c5ccccc5C(c5ccccc54)[C@@H]3C2=O)cc1 (stereo partly drawn) | 17.5
Cc1ccc(S(=O)(=O)NCC(c2ccc3c(c2)OCO3)N2CCN(c3ccccc3)CC2)cc1 (stereo not drawn) | 13.5
O=[N+]([O-])c1ccc(S(=O)(=O)N2CCSC2c2ccco2)cc1 (stereo not drawn) | 8.66
O=S(=O)(NCCSCc1ccc(Cl)cc1Cl)c1ccc2c(c1)OCCO2 | 7.68
CCc1ccc(NC(=O)CS(=O)CC(=O)NCC2OCCc3ccccc32)cc1 (stereo not drawn) | -0.968
CCC(c1nnnn1C(C)(C)C)N1CCN(C2CCCC2)CC1 (stereo not drawn) | 4.37
COc1ccc(C(=O)O/N=C/c2c(C(F)(F)F)nn(C)c2SCc2ccccc2Cl)cc1 | -12.9
COc1cc(NC(=O)COC(=O)c2ccc(S(=O)(=O)N3CC(C)CC(C)C3)cc2)c(C)cc1[N+](=O)[O-] (stereo not drawn) | 5.69
Cc1ccc(C2=NN(CC(=O)NCc3cccs3)C(=O)CC2)cc1 | -3.93
O=C(NCc1cccc(Cl)c1)c1ccc2nc[nH]c2c1 | 17.8
CCCCNC(=O)NNC(=O)C1CC1(c1ccccc1)c1ccccc1 (stereo not drawn) | 15.2
Cc1cc(C(F)(F)F)nn1CC(=O)NNC(=S)Nc1ccc(F)cc1 | 11.5
O=[N+]([O-])c1cccc(-c2noc(-c3ccco3)n2)c1 | 16

SMILES | hERG current change (%, negative = inhibition) at 1uM [%]
O=C(OCC(=O)N1c2ccccc2Sc2ccccc21)c1cccnc1 | 7.62
CN(C)C(=O)c1cc(C(=O)Cc2ccccc2)c[nH]1 | 18.1
COc1ccc(NC(=O)CSc2n[nH]c(C(C)C)n2)c([N+](=O)[O-])c1 | 10.4
O=C1CC(c2ccccc2)CC(O)=C1C=NCc1ccc(Cl)cc1 (stereo not drawn) | 10.4
COCCN(Cc1ccc(C)c(Br)c1)C(=O)Cn1cnc(S(=O)(=O)N2CCCC2)c1 | 4.5
CCN(C(=O)c1cc2c(s1)-c1ccccc1S(=O)(=O)C2)c1cc(OC)ccc1OC | 3.56
CCOc1ccccc1N1CCN(Cc2cc3c(cc2[N+](=O)[O-])OCO3)CC1 | 4.28
O=C(Nc1cccc(-c2nc3ncccc3o2)c1)c1ccco1 | -6.26
Cc1ccc(S(=O)(=O)N2CCC(N3CCN(C)CC3)CC2)cc1Cl.O=C(O)C(=O)O | 7.12
O=C(Nc1ccc(S(=O)(=O)N2CCOCC2)cc1)c1ccc(Cl)cc1 | 2.16
COc1ccc(C2=NOC(C(=O)NC(C)(C)C)C2)cc1 (stereo not drawn) | -3.31
COc1cccc(CC(CC(=O)O)C(=O)Nc2cc(C)ccc2C)c1 (stereo not drawn) | 8.13
CCOC(=O)N1CCN(C(=O)Cn2nc(C)n3nc(-c4ccccc4)cc3c2=O)CC1 | 10.1
Cc1ccc(C)c(OCCC(=O)OCC(=O)NNC(=O)c2ccccc2)c1 | 12.9
CC1CCN(S(=O)(=O)c2ccc3c(c2)oc(=O)n3CC(=O)N2CCc3ccccc3C2)CC1 | 7.51
Cc1ccc2cccc(NC(=O)C(F)(F)F)c2n1 | 12.5
CCCCOc1ccc(-c2cc(C(F)(F)F)c(C#N)c(SCC(=O)O)n2)cc1 | 6.97
O=C(CCc1ccccc1)NNC(=O)Nc1ccc(Cl)cc1 | 16.4
CCOC(=O)c1nnc(-c2ccccc2)nc1NCc1ccc(Cl)cc1 | 15.9
Cc1ccccc1NS(=O)(=O)c1ccc2c(c1)oc(=O)n2C | 7.94
CCOc1cc(OCC)cc(C(=O)Nc2cccnc2)c1 | -1.3
COc1cc(-n2c(=O)c3ccccc3n(CC(=O)OCc3ccccc3)c2=O)cc(OC)c1OC | 16

SMILES | hERG current change (%, negative = inhibition) at 1uM [%]
CCCOc1ccc(/C(CC)=N/NC(=O)C2(C)CC2(Br)Br)cc1 (stereo not drawn) | -4.78
CCCC(O)(CCC)C(=O)NN(C(=O)OC)c1ccccc1 | 19.2
Cc1ccc(OCC(=O)NNC(=O)c2cccnc2)cc1C | 5.52
COC(=O)c1cc(NS(=O)(=O)c2ccc(Cl)c(N3C(=O)c4ccc(C(=O)O)cc4C3=O)c2)cc(C(=O)OC)c1 | 14.7
CCC[C@@H]1CCCO[C@@](C(=O)NCc2ccc(S(C)(=O)=O)cc2)(C(F)(F)F)C1 | 12.4
CC(C)CCOc1cccc(OCC(=O)N(C)C2CCS(=O)(=O)C2)c1 (stereo not drawn) | 13.7
Cc1ccccc1OCC(=O)OCC(=O)Nc1ncc(Cl)c(C)c1Cl | 6.19
CSc1nncc(-c2ccc(F)c(F)c2)n1 | 17
Fc1ccccc1N1CCN(C2CCN(Cc3c[nH]c4ccccc34)CC2)CC1 | -13.9
CC1=CC(C)(C)n2c(O)c(N=N)c3c(C)c(C)cc1c32 | 4.68
CN(CC(=O)Nc1cccc(F)c1)C(=O)c1cn(-c2ccccc2)nc1-c1ccc(Cl)cc1 | 5.04
O=C1C2C3C=CC(C3)C2C(=O)N1c1cccc(N2C(=O)C3C4C=CC(C4)C3C2=O)n1 (stereo not drawn) | -0.282
Cc1cc(C)c(S(=O)(=O)Nc2ccncc2)cc1C | 13.7
CCOc1ccc(-c2ccc(SCC(=O)NCC3CCCO3)nn2)cc1 (stereo not drawn) | 9.18
COc1cc(OC)cc(C(=O)Nn2cc(C(=O)Nc3c(F)cccc3F)c3ccccc3c2=O)c1 | 3.74
COc1cc2c(cc1OC)CN(C(=O)c1ccccc1C(=O)O)CC2 | 13.5
O=C(NCC1CCCO1)c1onc(CSc2ccccc2)c1C(=O)O (stereo not drawn) | 15.5
CCC(=O)Nc1cc(Cl)ccc1C(=O)O | -0.571
C=CCC(C(=O)OC)(C(=O)OC)c1ccc([N+](=O)[O-])cc1[N+](=O)[O-] | 6.08
Cn1cc(C(=O)NCc2ccc(F)cc2)cn1 | 3.95
Cc1nc(NC(=O)C23CC4CC(CC(C4)C2)C3)sc1Cc1ccc2c(c1)OCO2 | 13.4
COC(c1ccccc1)c1nnc(CCC(=O)N(C)Cc2cccc(-n3cccn3)c2)o1 (stereo not drawn) | 4.63

SMILES | hERG current change (%, negative = inhibition) at 1uM [%]
Cc1ccccc1NC(=O)Cn1nc(C)n2cccc2c1=O | 9.18
CCOc1ccc(NC(=O)c2sc3nc(N4CCOCC4)c4c(c3c2N)CCCC4)cc1 | 16.3
Cc1ccc(Nc2nnc(SC3CCOC3=O)s2)c(C)c1 (stereo not drawn) | -2.44
O=c1[nH]c(SCc2ccccc2)nc2c1cnn2-c1ccc(F)cc1 | 4.7
CCC(C)c1ccc(NC(=O)NCCN2CCCCC2)cc1 (stereo not drawn) | -9.2
Cc1ccc(Cn2cnc3sc4c(c3c2=O)CCC4)c(C)c1 | 1.95
O=C(CSc1nc2ccccc2c(=O)n1-c1ccccc1)N1CCCc2ccccc21 | 5.45
O=c1[nH]c(=S)n(C2CC2)c(O)c1C=NCc1ccc(F)cc1 | 17.4
COc1ccc(Cl)cc1N(CC(=O)Nc1ccc2c(c1)OCCO2)S(C)(=O)=O | 11.4
CCc1ccc(OCC(=O)N(CC)CC)cc1 | 5.85
O=C(COn1nnc2ccc(C(F)(F)F)cc21)Nc1c(Cl)cccc1Cl | 4.44
Cc1nc2ncnn2c(C)c1Cc1cccc(F)c1 | -2.87
COCCCNC(=S)NC1CC2CCCC(C1)N2Cc1cccs1 (stereo not drawn) | 1.43
COc1ccc(CCC(C)N2CCC(Oc3ccc(C(=O)N4CCCC4)cc3)CC2)cc1 (stereo not drawn) | -28.5
O=C(Cn1cnc2ccccc2c1=O)NNC(=O)c1cccc([N+](=O)[O-])c1 | 10.8
Cc1cnc(NC(=O)Cc2ccc(Br)cc2)s1 | 15.3
CC(C)c1cc(C(=O)NCc2ccco2)no1 | 11
CCCCC/C=N/NC(=O)c1[nH]c2ccc([N+](=O)[O-])cc2c1C | 7.07
C/C=C(/C)C(=O)Nc1cccc(C2=NOC3(C2)C[C@H](C(N)=O)N(C(=O)c2ccccc2)C3)c1 (stereo partly drawn) | 11.3
O=C1CCCC2=C1C(c1ccc(O)c(O)c1)c1c(ccc3ncccc13)N2 (stereo not drawn) | 10.7
COC(=O)c1ccccc1NC(=O)c1ccc(COc2ccc3c(c2)CCC3)cc1 | 9.4
